Results on one molecule are retold here after the Bradley open melting point set (2014).

`CC(C)(C)c1ccc(O)cc1` [4-tert-butylphenol] yielded a melting point of 99 °C.

As a reminder, the melting point is the temperature of the solid-liquid transition.
